{"source": "PubChem BioAssay AID445", "about": "(National Center for Advancing Translational Sciences (NCATS), 2006)", "note": "In all, about 110,000 compounds went through this assay and about 40 (0.04%) were called active. This list was built around the results that the source calls inconclusive (neither active nor inactive); the mix of calls is not that of the screen. Calls follow the shape of the dose curve; as a rule, active = well fitted curve in the direction sought with a large enough effect in the signal ratio (not every such curve was filed as active); inconclusive = small, poorly fitted or top-dose-only effect, or a change in a side signal; inactive = flat fitted curve, though single readings scatter; the % refers to the signal ratio. A potency beside an inconclusive call is a rough fit, not a confirmed value. Potency is read from the fitted curve at half-maximal effect."}
{"test": "IkB Signaling;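 as to IkBa stabilization activation: 0% = basal untreated cells and 100% = reference inhibitor full response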", "details": "ABC-DLBCL IkBa-CBG/CBR dual luciferase ratio (green luciferase fused to IkBa over red control in OCI-Ly3 lymphoma cells), 4 h; IkBa stabilization activation: at 57.1 µM (top of the series), scaled: untreated 0%, proteasome inhibitor 100% unless noted", "how_it_was_run": "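In this assay, an IκBα–CBG68 fusion accumulates when IKK-driven degradation is blocked; native CBR normalizes for cell number. OCI-Ly3 cells were treated 4 h with compound and doxycycline, then green and red light read after Chroma-Glo addition.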"}
{"molecule": "COc1cccc(-c2nc(NCc3ccccc3)c3ccccc3n2)c1", "IkBa stabilization activation": "inactive: 7.26% [at 11.4 µM, scaled: untreated 0%, proteasome inhibitor 100%]"}
{"molecule": "Nc1cccc2cc(S(=O)(=O)Nc3ccc(C(=O)O)cc3)ccc12", "IkBa stabilization activation": "inactive: -0.643% [at 11.4 µM, scaled: untreated 0%, proteasome inhibitor 100%]"}
{"molecule": "COc1ccc(C(=O)CC2(O)C(=O)N(Cc3ccccc3)c3ccc(Br)cc32)cc1", "note": "(stereo unspecified)", "Potency": "inconclusive: 25.1 µM [signal inhibitor]"}
{"molecule": "O=C(NCc1ccco1)C1CCN(c2nc3ccccc3n2Cc2ccc(F)cc2)CC1", "IkBa stabilization activation": "inconclusive: 4.19% [signal inhibitor]"}
{"molecule": "CCN(CC)CCNC(=O)Nc1ccc2c(c1)N(Cc1ccccc1)C(=O)c1ccccc1S2", "IkBa stabilization activation": "inactive"}
{"molecule": "COc1ccc(N2CC(NC(=O)c3ccc(S(=O)(=O)N4CCOCC4)cc3)CC2=O)cc1OC", "note": "(stereo unspecified)", "IkBa stabilization activation": "inactive"}
{"molecule": "O=C(Nc1cccc(-c2nnc(-c3ccccc3)o2)c1)c1ccco1", "IkBa stabilization activation": "inactive"}
{"molecule": "CCc1ccc(S(=O)(=O)N(C(=O)Oc2ccccc2)c2ccc3oc(C)c(C(=O)OC)c3c2)cc1", "IkBa stabilization activation": "inactive"}
{"molecule": "CCOC(=O)c1c(NC(=O)CSc2nnc(-c3cccnc3)o2)sc(C(C)=O)c1C", "IkBa stabilization activation": "inconclusive: 7.91% [signal inhibitor]"}
{"molecule": "CCCCOc1cccc(C(=O)N(Cc2cccs2)c2ccc(OC)cc2)c1", "IkBa stabilization activation": "inconclusive: 1.24% [signal inhibitor]"}
{"molecule": "CC(C)(C)c1ccc(-c2nc(SCC(=O)Nc3ccc(Cl)cc3)[nH]c(=O)c2C#N)cc1", "IkBa stabilization activation": "inconclusive: 1.11% [signal inhibitor]"}
{"molecule": "CC1CCN(c2nc(-c3ccco3)c3c(c2C#N)CC(C)(C)OC3)CC1", "IkBa stabilization activation": "inconclusive: 6.43% [signal inhibitor]"}
{"molecule": "Cc1ccc(Cl)cc1-n1ncc2c(N3CCCCCC3)ncnc21", "IkBa stabilization activation": "inconclusive: -4.54% [signal inhibitor]"}
{"molecule": "Cc1ccccc1CN1C(=O)c2ccccc2Sc2ccc(C(=O)NC3CCCC3)cc21", "IkBa stabilization activation": "inconclusive: 2.69% [signal inhibitor]"}
{"molecule": "CCCN(C(=O)CCc1nc(-c2ccc(OC)cc2)no1)c1ccccc1F", "IkBa stabilization activation": "inconclusive: 2.28% [signal inhibitor]"}
{"molecule": "COc1cccc2cc(-c3nnc(Nc4c(F)cccc4F)s3)c(=O)oc12", "IkBa stabilization activation": "inconclusive: 6.94% [signal inhibitor]"}
{"molecule": "COc1cc(-c2nc(Cn3nnc(C(=O)Nc4ccc(C)cc4C)c3C)c(C)o2)cc(OC)c1OC", "IkBa stabilization activation": "inconclusive: 4.91% [signal inhibitor]"}
{"molecule": "Cc1oc(-c2ccccc2F)nc1CS(=O)(=O)CC(=O)NCCc1ccc(Cl)cc1", "IkBa stabilization activation": "inconclusive: 2.84% [signal inhibitor]"}
{"molecule": "Cc1nc2ncnn2c(N2CCC(C(=O)NC3CCCC3)CC2)c1Cc1ccccc1", "IkBa stabilization activation": "inactive"}
{"molecule": "C=CCn1c2ccccc2c2nnc(SCC(=O)NC(C(=O)OC)C(C)C)nc21", "note": "(stereo unspecified)", "IkBa stabilization activation": "inactive"}
{"molecule": "COc1ccc(-n2nnnc2SCC(=O)c2cc3ccccc3o2)cc1", "IkBa stabilization activation": "inconclusive: 3.56% [signal inhibitor]"}
{"molecule": "COc1ccc(NC(=O)Cn2ncc3c2-c2ccccc2OC3)cc1Cl", "IkBa stabilization activation": "inconclusive: 4.05% [signal inhibitor]"}
{"molecule": "COc1cc2c(cc1OC)C1=C(C#N)CCC(=O)N1CC2", "IkBa stabilization activation": "inactive"}
{"molecule": "O=C(CSc1nc2c([nH]c3ccccc32)c(=O)n1-c1ccccc1)Nc1ccc2c(c1)OCCO2", "IkBa stabilization activation": "inconclusive: -1.51% [signal inhibitor]"}
{"molecule": "CCOC(=O)N1CCN(C(=O)CSCC(=O)Nc2nc(-c3ccccc3)cs2)CC1", "IkBa stabilization activation": "inconclusive: 0.424% [signal inhibitor]"}
{"molecule": "CCN(CCCNC(=O)c1cc2c(Cl)nc3ccccc3c2s1)Cc1ccccc1", "IkBa stabilization activation": "inconclusive: -1.27% [signal inhibitor]"}
{"molecule": "COc1ccc([C@@H]2CNC(=O)C2)cc1OC1CCCC1", "IkBa stabilization activation": "inactive"}
{"molecule": "COc1ccc(CCNC(=O)Cn2ncc3c(=O)oc4ccccc4c32)c(OC)c1", "IkBa stabilization activation": "inconclusive: 1.85% [signal inhibitor]"}
{"molecule": "CCOc1ccc(NC(=O)c2oc3ccccc3c2NC(=O)c2cc(C)cc(C)c2)cc1", "IkBa stabilization activation": "inconclusive: 2.82% [signal inhibitor]"}
{"molecule": "Cc1noc(C)c1-c1nccc(NCc2cccnc2)n1", "IkBa stabilization activation": "inactive: 2.28% [at 11.4 µM, scaled: untreated 0%, proteasome inhibitor 100%]"}
{"molecule": "CCOc1ccc(NC(=O)c2cnc(Nc3ccccc3OC)c3ccccc23)cc1", "IkBa stabilization activation": "inconclusive: 4.51% [signal inhibitor]"}
{"molecule": "N#Cc1nc(-c2ccccc2F)oc1NCc1cccc2c1OCO2", "IkBa stabilization activation": "inconclusive: 5.16% [signal inhibitor]"}
{"molecule": "Cc1cccc(Cc2c(C)nc3nc(SCC(=O)NCc4ccccc4)nn3c2C)c1", "IkBa stabilization activation": "inconclusive: 1.53% [signal inhibitor]"}
{"molecule": "CC(C)Oc1ccc(CNC(=O)c2cccc(NC(=O)N3CCSc4ncccc43)c2)cc1", "IkBa stabilization activation": "inconclusive: 0.645% [signal inhibitor]"}
{"molecule": "CCC(=O)N1CCc2cc(Br)cc(S(=O)(=O)N3CCCC(C(=O)Nc4cccc(F)c4)C3)c21", "note": "(stereo unspecified)", "IkBa stabilization activation": "inconclusive: 1.49% [signal inhibitor]"}
{"molecule": "CCOC(=O)CSc1nc2sc3c(c2c(=O)n1-c1ccccc1)CCC(C(C)(C)C)C3", "note": "(stereo unspecified)", "IkBa stabilization activation": "inconclusive: 4.9% [signal inhibitor]"}
{"molecule": "CN(C)Cc1ccccc1-c1nc(NCc2ccccc2)c2ccccc2n1", "IkBa stabilization activation": "inactive: -5.13% [at 11.4 µM, scaled: untreated 0%, proteasome inhibitor 100%]"}
{"molecule": "CCOC(=O)c1sc(NC(=O)c2cc3nc(-c4ccccc4)cc(C(F)(F)F)n3n2)c(C(=O)OCC)c1C", "IkBa stabilization activation": "inactive"}
{"molecule": "CCOC(=O)c1cc(-c2ccccc2)n(-c2cccc(C(=O)Nc3cc(OC)cc(OC)c3)c2)c1C", "IkBa stabilization activation": "inconclusive: 1.47% [signal inhibitor]"}
{"molecule": "Cn1c(=O)oc2cc(S(=O)(=O)N3CCC(C(=O)Nc4ccc(F)c(Cl)c4)CC3)ccc21", "IkBa stabilization activation": "inconclusive: 5.57% [signal inhibitor]"}
{"molecule": "O=C(Nc1cccnc1)c1cc(-c2cccc(Cl)c2)on1", "Potency": "inconclusive: 3.98 µM [signal inhibitor, full curve]"}
{"molecule": "O=C(NCc1ccc(F)cc1)c1cc(-c2ccc(Cl)cc2)n[nH]1", "IkBa stabilization activation": "inconclusive: 0.687% [signal inhibitor]"}
{"molecule": "CCc1ccc(S(=O)(=O)c2nnn3c2nc(Nc2ccc(F)cc2)c2cc(Cl)ccc23)cc1", "IkBa stabilization activation": "inconclusive: 0.598% [signal inhibitor]"}
{"molecule": "O=C(O)c1cccc(Nc2ncnc3scc(-c4ccccc4)c23)c1", "IkBa stabilization activation": "inconclusive: -1.09% [signal inhibitor]"}
{"molecule": "CCN(CC)S(=O)(=O)c1ccc(C(=O)N2CC(=O)Nc3ccc(F)cc3C2c2ccccc2)cc1", "note": "(stereo unspecified)", "IkBa stabilization activation": "inconclusive: 0.433% [signal inhibitor]"}
{"molecule": "NC1=N[C@H](c2ccc(Cl)cc2)N(c2ccc(S(N)(=O)=O)cc2)C(N)=N1", "IkBa stabilization activation": "inactive: 0.34% [at 11.4 µM, scaled: untreated 0%, proteasome inhibitor 100%]"}
{"molecule": "COc1cc(NC(=O)C2CCCO2)c(OC)cc1NC(=O)c1ccccc1", "note": "(stereo unspecified)", "IkBa stabilization activation": "inactive"}
{"molecule": "CC(=O)Nc1ccc2nc(SCCOc3cc(C)cc(C)c3)sc2c1", "IkBa stabilization activation": "inactive"}
{"molecule": "CC(=O)N1c2ccc(S(=O)(=O)NCC3CCC(C(=O)Nc4cc(C)ccc4C)CC3)cc2CC1C", "note": "(stereo unspecified)", "IkBa stabilization activation": "inconclusive: 0.524% [signal inhibitor]"}
{"molecule": "COc1cc(NC(=O)c2c(C)oc3c2C2=NCCN2C=N3)cc(OC)c1OC", "IkBa stabilization activation": "inconclusive: -1.61% [signal inhibitor]"}
{"molecule": "COc1ccc(OCC(=O)NCc2ccc3c(c2)CCN3C(=O)c2ccc(F)cc2)cc1", "IkBa stabilization activation": "inactive"}
{"molecule": "CCCc1cc(C(=O)Nc2c(C)nn(Cc3c(Cl)cccc3Cl)c2C)no1", "IkBa stabilization activation": "inconclusive: 10.1% [signal inhibitor]"}
{"molecule": "Cc1cc(C)c(S(=O)(=O)Nc2ccc(-c3ccc(N4CCCCCC4)nn3)cc2)c(C)c1", "IkBa stabilization activation": "inconclusive: 2.84% [signal inhibitor]"}
{"molecule": "Cn1cnnc1SCC(=O)Nc1ccc(C#N)cc1", "IkBa stabilization activation": "inactive"}
{"molecule": "COC(=O)c1ccc(OCC2c3cc(OC)c(OC)cc3CCN2C(=O)Cc2ccccc2)cc1", "note": "(stereo unspecified)", "IkBa stabilization activation": "inactive"}
{"molecule": "COc1cc(C)nc(OCCNC(=O)COc2ccc(Cl)cc2C)n1", "IkBa stabilization activation": "inactive"}
{"molecule": "CCOC(=O)CCCN", "IkBa stabilization activation": "inactive: 0.731% [at 11.4 µM, scaled: untreated 0%, proteasome inhibitor 100%]"}
{"molecule": "O=C(c1cc(-c2cccs2)on1)N1CCCc2ccccc21", "IkBa stabilization activation": "inconclusive: 15.3% [signal inhibitor]"}
{"molecule": "O=S(=O)(NCC(c1cccs1)S(=O)(=O)c1ccccc1)c1ccc(F)c(C(F)(F)F)c1", "note": "(stereo unspecified)", "IkBa stabilization activation": "inconclusive: 4.99% [signal inhibitor]"}
{"molecule": "CCN(Cc1ccccc1)S(=O)(=O)c1cc(C(=O)Nc2cc(Cl)cc(Cl)c2)ccc1F", "IkBa stabilization activation": "inconclusive: 0.194% [signal inhibitor]"}
{"molecule": "CC(C)(C)C1CCc2c(sc(NC(=O)c3ccc(Cl)cc3)c2C(=O)NCc2ccco2)C1", "note": "(stereo unspecified)", "IkBa stabilization activation": "inconclusive: 2.65% [signal inhibitor]"}
{"molecule": "COc1ccccc1N1CCN(c2ncnc3c2cnn3-c2cccc(Cl)c2)CC1", "IkBa stabilization activation": "inconclusive: 2.48% [signal inhibitor]"}
{"molecule": "CCNS(=O)(=O)c1ccc(NC(=O)Nc2cccc(C(F)(F)F)c2)cc1", "IkBa stabilization activation": "inconclusive: -5.69% [signal inhibitor]"}
{"molecule": "Cc1ccc(Cn2c(CN3CCC(C(=O)NCCc4ccccc4)CC3)cc3ccccc32)cc1", "IkBa stabilization activation": "inconclusive: 1.01% [signal inhibitor]"}
{"molecule": "CC(C)Sc1ncc(Cl)c(C(=O)N(Cc2ccc(N(C)C)cc2)C2CCS(=O)(=O)C2)n1", "note": "(stereo unspecified)", "IkBa stabilization activation": "inconclusive: 2.45% [signal inhibitor]"}
{"molecule": "CCc1nn(CC(=O)Nc2ccc(N(CC)CC)cc2C)c(=O)c2cc3sccc3n12", "IkBa stabilization activation": "inconclusive: 5.64% [signal inhibitor]"}
